Data: the supplement of paper PMC3334620
The full ranking holds about 33,000 sequences; the median of “E-score (-0.5 to 0.5)” is about -0.012, and the highest 2% start at about 0.27. Some of the results follow.

target: T1, Vhr1 (UniProt P40522); test: PBM E-score (8-mer binding enrichment) (E-score (-0.5 to 0.5)); higher = stronger / more preferred TF binding; most listed sequences are background and not binding sites; conditions: protein concentration: 200 nM; construct: GST-full length
T1 sequence: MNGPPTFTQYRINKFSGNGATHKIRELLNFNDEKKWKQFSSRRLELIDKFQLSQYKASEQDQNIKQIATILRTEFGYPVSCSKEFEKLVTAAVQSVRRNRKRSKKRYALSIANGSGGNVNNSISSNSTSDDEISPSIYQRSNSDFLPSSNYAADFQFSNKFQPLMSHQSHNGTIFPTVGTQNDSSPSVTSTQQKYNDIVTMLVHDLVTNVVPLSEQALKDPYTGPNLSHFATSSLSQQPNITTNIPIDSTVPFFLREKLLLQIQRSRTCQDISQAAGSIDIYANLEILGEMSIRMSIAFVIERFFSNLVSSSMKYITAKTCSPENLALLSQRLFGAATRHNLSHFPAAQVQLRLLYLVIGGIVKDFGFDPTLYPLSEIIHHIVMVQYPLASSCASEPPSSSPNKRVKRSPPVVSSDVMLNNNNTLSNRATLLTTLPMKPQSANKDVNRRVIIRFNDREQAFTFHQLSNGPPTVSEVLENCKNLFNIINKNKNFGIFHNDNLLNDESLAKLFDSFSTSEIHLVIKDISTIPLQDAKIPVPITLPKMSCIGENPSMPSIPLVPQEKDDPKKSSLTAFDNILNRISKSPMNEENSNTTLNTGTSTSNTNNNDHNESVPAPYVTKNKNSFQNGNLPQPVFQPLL
Description: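 Universal 'all 10-mer' protein binding microarrays (Agilent AMADID 015681) probed with GST-tagged S. cerevisiae TFs (full-length or DBD) made by in vitro transcription/translation (PURExpress), about 100-200 nM. Bound TF was detected with fluorescent anti-GST. Each ungapped 8-mer (which stands for itself and its reverse complement) is scored by the PBM enrichment score (E-score), a modified Wilcoxon-Mann-Whitney statistic from -0.5 to +0.5, computed with the Universal PBM Analysis Suite. Scale: above 0.35 generally sequence-specific binding.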

Point of comparison: AGCCATAC, “PBM E-score” value 0.152. Against it:
- AAGGGGGG — lower, -0.192
- ACTAGGGC — lower, 0.0613
- CGCCGCCG — lower, 0.0529
- ATCCAAAG — lower, 0.0856
- ATGGATGC — lower, -0.0487
- CAGTACTG — lower, 0.062
- ATTAACCG — higher, 0.165
- GACTCTAC — lower, 0.135
- TACTGGAA — higher, 0.153
- CGGTCTAG — higher, 0.158
- GGAGGGCA — lower, 0.0601
- AAAATACG — lower, 0.112
- CAATTTCA — lower, -0.249
- ATGGTAAA — lower, 0.103
- CGGAATAA — lower, -0.0766
- AAGATCGT — lower, -0.0977
- CTTTTTAC — lower, -0.164
- CACTGCAC — lower, 0.133
- AGTTCTTG — lower, -0.15
- TGCACAAA — lower, -0.165
- CCCGGATC — lower, 0.145
- CAGGGTCG — lower, 0.025
- CTCTTTTA — lower, -0.222
- AAAGATCC — lower, -0.0874
- AGGTTCCG — lower, -0.0637
- GATGTTGC — lower, -0.0728
- ACAGACTC — higher, 0.164
- GCTGCCAA — lower, -0.0372
- ATATGGCA — lower, 0.0772
- CACCCACG — higher, 0.249
- ACCAGTTA — lower, 0.0649
- CGCTGTCA — lower, -0.0245
- AATCCTCG — lower, 0.0459
- AGTGTCTC — lower, 0.00473
- CCGTTTAA — lower, -0.126
- GTGTGTGA — higher, 0.298
- ATGGCAAC — lower, -0.00238
- GAATGGTA — lower, -0.0351
- AAATCGTA — lower, 0.0863
- GTTCTTCA — lower, -0.123
- CACACAGG — higher, 0.272
- GGGTTAAC — lower, -0.0119
- AGCAAACA — lower, 0.0181
- CAGCGTCA — lower, -0.116
- CCAGGTCA — lower, -0.187
- CATTGAGA — lower, 0.0157
- GGATTCCC — lower, -0.154
- CGTTCAAA — lower, -0.198
- CATTGCGA — lower, 0.0667
- AGTTCCTG — lower, -0.252
- TGGCTCAA — lower, 0.0366
- AATCTGAT — lower, 0.0984
- CCTCTTAC — lower, -0.215
- CCAAAGCA — lower, 0.125
- AATTACCC — lower, -0.0719
- CCAGAACC — lower, -0.0247
- CAGAATGA — lower, 0.0955
- GAAATGAA — lower, 0.101
- AACCATTG — lower, -0.0562
- ATCCTTGC — lower, -0.112
- ACTACCTA — lower, 0.0258
- CCCTAGCA — lower, -0.0457
- GCTCTGCC — lower, -0.205
- CGACGAAG — lower, -0.0239
- CTATAGAC — lower, -0.115
- GTGTAGAA — lower, -0.00458
- AGCTTGGG — lower, -0.0403
- GGTTTGCA — lower, 0.0676
- CGTGGAAG — lower, -0.0406
- CGCCTTAA — lower, 0.0587
- GGGGGACA — lower, 0.0626
- CATTCACG — lower, -0.114
- GGTGTGGA — higher, 0.181
- GGACCTAA — lower, -0.118
- ATCACTTC — higher, 0.158
- AGACCCTC — lower, -0.259
- CCCTTAAC — lower, -0.168
- ATATAATA — lower, 0.144
- GGGTAACA — lower, 0.099
- CACGCGTC — higher, 0.275
- CGCCATGC — lower, 0.0189
- CGCCGTGA — higher, 0.193
- CACGGGGC — lower, -0.00164
- AGAGGTCA — lower, -0.0353
- CTTTTGTA — lower, 0.012
- AGCGAGAC — lower, -0.0329
- CTCATGCC — lower, -0.0244
- ACGACGGG — lower, -0.0612
- GTGGTGAA — lower, -0.0322
- TGCAACCA — higher, 0.19
- CCTGGACA — lower, -0.199
- CCTAGTAC — lower, 0.0265
- CTGCACCA — lower, -0.0493
